Laboratory results from the supplement of paper PMC3724861.
The other results are listed elsewhere or left out.

tested on: T1, Caupolican (Caup) homeodomain DNA-binding domain; assay: PBM E-score (8-mer, recovered from the published 9-mer minima) (E-score (dimensionless, -0.5 to 0.5)); Drosophila protein; higher = stronger relative binding preference, active = 0.31 or more
T1 sequence: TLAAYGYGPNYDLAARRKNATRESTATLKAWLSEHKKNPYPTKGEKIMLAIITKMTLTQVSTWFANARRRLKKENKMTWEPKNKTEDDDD
In short: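 Caup's homeodomain DNA-binding domain (residues 214-303) was produced by in vitro transcription and translation and applied at 100 nM to custom-designed protein binding microarrays. Each value is an enrichment score giving relative binding preference for a short DNA word; higher means stronger. Published 9-mer scores were the minimum of their two constituent 8-mer scores, and the 8-mer values were recovered from those minima. A cutoff of 0.31 marks candidate binding sequences.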

PBM E-score, active:
TCATGTAA 0.427, AACATCAA ≥ 0.316, CCTTGTAG 0.322

PBM E-score, ≥ 0.292:
GTTGTTCA

PBM E-score, inactive:
AGCCCAGC -0.172, AATTGTAA 0.209, ATGCTTAA 0.0943, CATCACGC -0.0712, AAGCTACA 0.15, CATTCCTC -0.0336, GACCCTTA -0.124, GAAACCTA -0.0661, AAGATTAA 0.1, ATTTGTAC 0.277, CATAGACA 0.228, GAGTCTGA -0.0772, AGCGGCCC -0.254, AAATGCGT 0.0483, ACTACAGT 0.151, ATGTTGCC 0.121, GCGTTCAC -0.0456, CAAGCCTG 0.00099, ATACCTAT 0.118, ACTTCTCC -0.102, ATAGAGGG -0.0428, CGTAGGTC -0.0431, GCGAGTGA -0.141, CAATCCGC -0.106, CGAGAGAC -0.12, CGTCTCAC -0.0206, AATGCAAG 0.0828, GAGCTGAA -0.0913, ATATATTG 0.153, CTATTTAC 0.203, ATTGGGCG -0.135, AATCACGC 0.0789, ACCGAGTA -0.00765, GGCTTATA -0.0604, TCCCGCCA -0.22, CTGGTATA 0.109, TATTGCGA -0.0121, TCCAAGAA 0.00283, AAGCTAAG -0.105, CCACGGAG -0.126, CACCCAGG -0.099, CCAGTTTC -0.129, CTAAACCC -0.0636, GCTCTGCA -0.166, AAGCTTAA -0.0246, CACCACGG -0.0772, GGTCGTCA 0.0554, CACATACA 0.232, CAAACTTA 0.0306, ATTTTGGG -0.121, ACGGTGAA 0.0334, GTCGTCAC 0.0152, GCCTGTGA -0.0406, CCTAAACC -0.0841, CTAGATCC -0.0709, AGCATGCT 0.092, CGACACAG 0.163, GGTCTCAA -0.0699, ATTATTAG 0.152, CTACGTTA 0.128, GAATTAAA -0.0173, ACCGCCGG -0.244, TAGTACTA 0.236, AGCACTTA 0.0785, ATTAGGTC 0.0688, CCGAGCAA -0.0521, CAGATAGA -0.0148, CCGCACCA -0.0769, GGAAGCCA -0.191, CCGTGGTC -0.196, CGAGAACA 0.151, GATATGCC -0.0423, CGTAGTGC -0.0568, CCGAAACG -0.0407, ATAGGCTC -0.131, CCAAGAGC -0.196, CAATTTAC 0.188, GTCTTAAC 0.129, CCCCAGTA -0.124, CCGGGAGA -0.117, CGAAGAAA -0.0325, TAAACTAA 0.177, AGTGATCC 0.037, AAATGTAC 0.279, ACGAGTCA -0.0247, CATAATTC 0.065, ACGGGTGA 0.00384, CGTCTTCA -0.0985, GCCCACGC -0.309, AGCCGGTC -0.0994, CAGAATGC -0.132, CCTCTCCA -0.194, TCACACCA 0.0873, GACGACTA 0.101, ACACTATC 0.129, GCTGTTTA 0.0691, TGCCGGAA -0.0642, AAATTCCG 0.00229, GATCCACA 0.0297, ACAATAAG 0.124, CAAAAAAC 0.119, GACAAACC 0.0748, ATCTCGGC -0.157, GCCCATTA -0.00357, AATGCCCA -0.0245, ACTTGGGG -0.227, CCAGAGAA -0.0781, GCAACTGC 0.0274, TACAGAGA 0.12, CGTTCCAG -0.0331, CGGCGGAC -0.143, CGCCAGCC -0.277, ACACTGGC 0.0762, GGGAAGCA -0.134, CTTCTTGC -0.135, ACGCCCCA -0.161, CGCGGCCG -0.317, ACAGTTCC 0.0389, AGTATAGA 0.154, AATGTACG 0.153, CCTTCTAC -0.131, AAGACAAT 0.186, AGCTCTTC -0.0528, ATCGACTG -0.00774, CTCCCCCC -0.411, TATTTACA 0.304, ATTGTGCA 0.0772, CTCTCAAG -0.0267, GAAGTCAC -0.0947, GGGCCCGA -0.214, CATAATGA 0.153, ATTCGGAG -0.00213, CGATGGTC -0.074

PBM E-score, ≥ 0.196:
CCCAACAA

PBM E-score, ≥ 0.125:
TGGTAAAA

PBM E-score, ≥ 0.12:
TTCTCAAA

PBM E-score, ≥ 0.181:
AACTACCA

PBM E-score, ≥ 0.0527:
GTGCTTCA

PBM E-score, ≥ 0.127:
ACTAAGAT
